Laboratory results reported in the supplement of paper PMC7826260.
The list shows a part of the results. Each Rep nickase domain was tested in vitro on the same pool of single strands at 3 µM enzyme and 37 °C for 1 h; the strands have 90 letters, of which the middle is given. The score is log2 (uncut reads / reads without enzyme); strong cutting gives strongly negative numbers. There is no active / inactive call. Reads are scaled to the total; uncut strands gain when others are lost, and binding without cutting may add a little.

How the values were obtained:
Test in all cases: uncleaved DNA left, log2 of reads against the no-enzyme library (log2 ratio); higher = less cleavage (more negative = more Rep cleavage of the k-mer); sequences stand for … in CTCGTCCG…ACCGGAGA
[1] = test system: T1, Rep nickase domain of Muscovy duck circovirus
T1 sequence (Rep 1-111, printed without the tag): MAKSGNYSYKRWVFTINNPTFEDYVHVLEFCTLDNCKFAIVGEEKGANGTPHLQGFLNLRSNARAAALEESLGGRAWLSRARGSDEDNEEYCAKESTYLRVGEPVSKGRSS
Method: (§1)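 A pool of 90-nt single-stranded DNAs with seven random bases just before the constant AC of the nick site (name = the seven bases) was cut by 3 µM recombinant His6-SUMO-tagged Rep nickase domain (300 nM DNA, 50 mM HEPES pH 8.0, 50 mM NaCl, 1 mM MnCl2, 1 h, 37 °C, three replicates). Uncut DNA was amplified and sequenced.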

[2] = test system: T2, Rep nickase domain of banana bunchy top virus
T2 sequence (Rep 1-94, printed without the tag): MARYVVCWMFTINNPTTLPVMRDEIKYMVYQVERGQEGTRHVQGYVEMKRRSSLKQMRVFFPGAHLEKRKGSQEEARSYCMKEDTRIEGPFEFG
Method: as §1

[3] = test system: T3, Rep nickase domain of cabbage leaf curl virus
T3 sequence (Rep 1-116, printed without the tag): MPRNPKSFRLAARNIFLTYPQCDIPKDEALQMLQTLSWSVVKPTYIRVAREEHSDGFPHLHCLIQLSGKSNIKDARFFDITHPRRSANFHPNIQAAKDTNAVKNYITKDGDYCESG
Method: as §1

[4] = test system: T4, Rep nickase domain of chickpea chlorotic dwarf virus
T4 sequence (Rep 1-124, printed without the tag): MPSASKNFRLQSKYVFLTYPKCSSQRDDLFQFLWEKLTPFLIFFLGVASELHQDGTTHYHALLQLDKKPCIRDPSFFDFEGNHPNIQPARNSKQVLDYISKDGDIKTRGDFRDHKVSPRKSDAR
Method: as §1

[5] = test system: T5, Rep nickase domain of faba bean necrotic yellows virus
T5 sequence (Rep 1-98, printed without the tag): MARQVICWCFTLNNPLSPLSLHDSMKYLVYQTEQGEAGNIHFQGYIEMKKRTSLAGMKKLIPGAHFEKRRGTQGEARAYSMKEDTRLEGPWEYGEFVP
Method: as §1

[6] = test system: T6, Rep nickase domain of maize striate mosaic virus
T6 sequence (Rep 1-117, printed without the tag): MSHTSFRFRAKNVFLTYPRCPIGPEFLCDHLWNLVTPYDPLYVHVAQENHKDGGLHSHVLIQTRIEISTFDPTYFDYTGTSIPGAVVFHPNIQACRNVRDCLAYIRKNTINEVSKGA
Method: as §1

[7] = test system: T7, Rep nickase domain of porcine circovirus 2
T7 sequence (Rep 2-116, printed without the tag): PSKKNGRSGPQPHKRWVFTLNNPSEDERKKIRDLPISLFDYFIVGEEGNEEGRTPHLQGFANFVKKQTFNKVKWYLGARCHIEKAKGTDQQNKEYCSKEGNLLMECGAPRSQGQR
Method: as §1

[8] = test system: T8, Rep nickase domain of tomato golden mosaic virus
T8 sequence (Rep 1-124, printed without the tag): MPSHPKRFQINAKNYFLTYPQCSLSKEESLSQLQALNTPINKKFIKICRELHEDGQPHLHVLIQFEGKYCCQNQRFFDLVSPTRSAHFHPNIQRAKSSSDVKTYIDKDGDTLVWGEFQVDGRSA
Method: as §1

[9] = test system: T9, Rep nickase domain of tomato yellow leaf curl virus
T9 sequence (Rep 1-136, printed without the tag): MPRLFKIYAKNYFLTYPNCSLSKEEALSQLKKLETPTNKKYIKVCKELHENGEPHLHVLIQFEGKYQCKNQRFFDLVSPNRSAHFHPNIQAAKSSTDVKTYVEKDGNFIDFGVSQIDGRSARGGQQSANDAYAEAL
Method: as §1

[10] = test system: T10, Rep nickase domain of wheat dwarf virus
T10 sequence (Rep 1-137, printed without the tag): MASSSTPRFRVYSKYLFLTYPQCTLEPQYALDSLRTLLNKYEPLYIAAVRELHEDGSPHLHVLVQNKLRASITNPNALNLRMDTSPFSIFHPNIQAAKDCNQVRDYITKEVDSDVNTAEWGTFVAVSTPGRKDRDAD
Method: as §1

Row | Sequence | uncleaved DNA left (log2) [1] | uncleaved DNA left (log2) [2] | uncleaved DNA left (log2) [3] | uncleaved DNA left (log2) [4] | uncleaved DNA left (log2) [5] | uncleaved DNA left (log2) [6] | uncleaved DNA left (log2) [7] | uncleaved DNA left (log2) [8] | uncleaved DNA left (log2) [9] | uncleaved DNA left (log2) [10]
1 | TTGTGAC | 0.0979 | 0.138 | 0.0776 | 0.229 | 0.126 | -0.509 | 0.175 | -0.0214 | 0.21 | 0.115
2 | GGCTAAA | 0.0443 | 0.181 | 0.535 | 1.28 | 0.0872 | 1.76 | 0.181 | 0.139 | 0.118 | 0.252
3 | TCAAGGC | 0.00503 | -0.0718 | 0.0836 | 0.399 | -0.0937 | -0.187 | 0.109 | -0.0249 | -0.154 | -0.0736
4 | GCAAAAA | 0.0439 | 0.131 | 0.141 | 0.506 | 0.105 | -0.0816 | 0.0445 | 0.119 | 0.018 | 0.147
5 | TGGACAT | -0.114 | -0.0568 | 0.781 | 2.11 | -0.102 | 2.3 | 0.0834 | -0.0549 | -0.112 | 0.1
6 | GCGCATT | -0.0141 | -0.169 | 0.524 | 1.18 | -0.0399 | 1.64 | -0.0358 | -0.146 | -0.043 | 0.089
7 | GTGTGTT | -1.25 | -0.332 | 0.087 | 0.382 | -0.537 | 1.35 | -2.57 | -0.0439 | -0.132 | -0.121
8 | CAGATCA | -0.0579 | 0.0613 | 0.119 | -1.39 | -0.128 | -0.00291 | -0.863 | -0.0381 | -0.0384 | 0.12
9 | CCAGTGG | 0.00814 | -0.0766 | -0.245 | -0.279 | -0.0741 | -0.987 | 0.0209 | -0.0211 | 0.0941 | -0.0377
10 | ACCAAAC | 0.0162 | 0.0766 | -0.13 | -0.382 | 0.148 | -0.862 | 0.0313 | -0.0464 | -0.114 | 0.0916
11 | GGCTTGG | 0.0851 | 0.062 | 0.178 | 0.557 | 0.0455 | 0.756 | 0.124 | 0.0928 | 0.0247 | 0.0448
12 | CACACGG | 0.176 | 0.143 | 0.522 | 1.35 | -0.0263 | 1.45 | 0.214 | 0.14 | 0.0395 | 0.15
13 | CCTAAGG | 0.149 | 0.213 | 0.493 | 1.29 | 0.000274 | 1.09 | 0.19 | 0.233 | 0.0732 | 0.0677
14 | CATTCAT | -1.78 | -3.05 | -0.102 | -1.46 | 0.0274 | -0.768 | -3.48 | 0.0593 | 0.0731 | 0.0558
15 | CTTAGCG | -0.0895 | -0.036 | -0.882 | 0.293 | -0.0638 | -0.833 | 0.0601 | -0.101 | -0.0672 | -0.184
16 | AACTGTC | 0.0468 | -0.11 | -0.0524 | 0.147 | -0.0285 | 0.107 | -0.24 | -0.0877 | 0.00168 | 0.05
17 | TAGTCGC | 0.0355 | -0.0523 | -0.696 | -0.816 | 0.0429 | -1.06 | -2.38 | -0.0568 | 0.0228 | -0.036
18 | TGTAAAA | -0.0102 | 0.0275 | 0.266 | 0.297 | -0.0213 | -0.0285 | 0.0818 | 0.0531 | 0.0694 | 0.168
19 | CGAGAAG | -0.0259 | -0.0552 | -0.542 | -0.395 | 0.0101 | -0.987 | 0.165 | 0.0916 | 0.0886 | -0.12
20 | CAACGGA | 0.0312 | 0.021 | 0.0397 | -0.0241 | 0.0354 | -0.291 | 0.0599 | 0.0524 | -0.00836 | -0.0413
21 | AGCAAAG | 0.0772 | 0.0648 | -0.275 | 0.124 | 0.0524 | -0.39 | 0.099 | 0.0529 | 0.0438 | 0.11
22 | AGGCTAG | 0.0146 | 0.00826 | -0.26 | -0.221 | 0.117 | -0.66 | 0.109 | 0.0735 | -0.0565 | 0.0105
23 | AATCCAT | 0.113 | 0.11 | -0.0849 | -1.18 | 0.0308 | -0.323 | -0.227 | -0.0756 | 0.107 | 0.127
24 | GACGCGG | 0.0085 | 0.0948 | 0.135 | 0.673 | -0.0693 | 0.463 | 0.0364 | 0.0362 | -0.0131 | -0.0889
25 | CCCTTGG | -0.0077 | -0.0453 | -0.4 | -0.486 | 0.0513 | -1.26 | -0.0243 | 0.132 | -0.00175 | -0.158
26 | TCCCGTG | 0.0859 | 0.172 | -0.346 | -0.471 | 0.106 | -0.689 | 0.151 | 0.0614 | 0.172 | 0.00156
27 | TCTCTTG | -0.0344 | -0.0599 | -0.225 | -1.42 | 0.024 | -0.95 | 0.0749 | -0.011 | 0.0524 | -0.0993
28 | AGTGGGT | 0.178 | 0.0467 | 0.159 | 1.35 | -0.0126 | 1.73 | -0.159 | 0.133 | -0.129 | 0.0862
29 | AAGCTAC | 0.0721 | 0.0716 | 0.11 | -0.762 | 0.162 | 0.604 | 0.136 | 0.117 | 0.0631 | 0.184
